45 compounds from PMC11995724, “Antibiotic target discovery by integrated phenotypic and activity-based profiling of electrophilic fragments” (Cell chemical biology, 2025) can be followed below.

The structures appear in SMILES notation. Screen size: about 3,200 compounds; about 75 (2%) showed an effect of 50% or more. Some of the results follow.

In the test the test system is T1, S. aureus MSSA476.
T1 construct: MSSA476
On the set-up: species or system S. aureus MSSA476 (TSB) or V. cholerae SAD30 (LB); 384-well bacterial growth screen at 25 uM, OD600 relative to DMSO control. The conditions noted are these: relative growth, OD600, TSB; 25 µM; inhibitor.
Take `CCCCNC(=O)C(C#N)=Cc1cccc(Cl)c1Cl` [9-H11, N-butyl-2-cyano-3-(2,3-dichlorophenyl)prop-2-enamide]: the “% of control remaining” value was 71.0112%.
Take `Cc1ccc(NC(=O)NC(=O)C(C)Cl)c(C)c1` (stereo not drawn) [6-J04, 3-(2-chloropropanoyl)-1-(2,4-dimethylphenyl)urea]: the “% of control remaining” value was 101.073%.
The value for `C=CC(=O)NCc1ccc(F)c(F)c1` [1-C10, N-[(3,4-difluorophenyl)methyl]prop-2-enamide] was 86.5055%; that for `C=CC(=O)N(C)CC(=O)N1CCN(C(=O)c2cccc(O)c2)CC1` [2-J22, N-{2-[4-(3-hydroxybenzoyl)piperazin-1-yl]-2-oxoethyl}-N-methylprop-2-enamide] was 131.941%.
For `C=CC(=O)NC1CCCCC12CCCC2` (stereo not drawn) [1-F16, N-{spiro[4.5]decan-6-yl}prop-2-enamide], the “% of control remaining” value is on record as 107.604%.
The same measure for `COc1cccc(CN(C(=O)CCl)C23CC4CC(CC(C4)C2)C3)c1` [5-E05, N-(adamantan-1-yl)-2-chloro-N-[(3-methoxyphenyl)methyl]acetamide]: 131.148%; for `C=CC(=O)N(Cc1c2c(nn1C)CCOC2)c1cc(C)cc(C)c1` [2-A07, N-(3,5-dimethylphenyl)-N-({2-methyl-2H,4H,6H,7H-pyrano[4,3-c]pyrazol-3-yl}methyl)prop-2-enamide]: 126.719%; for `CC(Cl)C(=O)N(CCc1ccc(F)cc1F)C(C)C` (stereo not drawn) [6-D18, 2-chloro-N-[2-(2,4-difluorophenyl)ethyl]-N-(propan-2-yl)propanamide]: 93.9024%.
For `Cc1cc(C2CCCN2C(=O)C(C)Cl)no1` (stereo not drawn) [7-D19, 2-chloro-1-[2-(5-methyl-1,2-oxazol-3-yl)pyrrolidin-1-yl]propan-1-one], the “% of control remaining” value was determined as 100.785%.
In the case of `CC(Cl)C(=O)N1CC(S(=O)(=O)c2ccccc2F)C1` (stereo not drawn) [7-M15, 2-chloro-1-[3-(2-fluorobenzenesulfonyl)azetidin-1-yl]propan-1-one], the “% of control remaining” value came to 99.843%.
The same measure for `CC(Cl)C(=O)N1CCCN(C)c2cc(F)ccc21` (stereo not drawn) [6-N16, 2-chloro-1-(7-fluoro-5-methyl-2,3,4,5-tetrahydro-1H-1,5-benzodiazepin-1-yl)propan-1-one]: 103.122%; for `Cc1c(CN(CC2CC=CCC2)C(=O)CCl)cnn1C` (stereo not drawn) [5-C14, 2-chloro-N-[(cyclohex-3-en-1-yl)methyl]-N-[(1,5-dimethyl-1H-pyrazol-4-yl)methyl]acetamide]: 89.6175%.
In the case of `C=CC(=O)N(C)CC(=O)NCc1c(O)nnc(C)c1C` [2-I20, N-({[(3-hydroxy-5,6-dimethylpyridazin-4-yl)methyl]carbamoyl}methyl)-N-methylprop-2-enamide], the “% of control remaining” value is 69.9739%.
For `C=CC(=O)N1CCC(C(=O)NCc2ncccc2OC)CC1` [3-H05, N-[(3-methoxypyridin-2-yl)methyl]-1-(prop-2-enoyl)piperidine-4-carboxamide], the “% of control remaining” value was found to be 93.6874%.
The same measure for `O=C(O)C1CCN(C(=O)CCl)CC1` [6-O11, 1-(2-chloroacetyl)piperidine-4-carboxylic acid]: 88.0976%; for `C=CC(=O)Nc1ccc2c(c1)OCCCO2` [1-G20, N-(3,4-dihydro-2H-1,5-benzodioxepin-7-yl)prop-2-enamide]: 96%; for `COc1cc(NC(=O)CCl)c(Cl)cc1C(=O)O` [4-M17, 5-chloro-4-(2-chloroacetamido)-2-methoxybenzoic acid]: 121.201%.
For the compound `C=CC(=O)N(Cc1cn(C2CCC2)nn1)c1ccc(F)cc1` [1-G09, N-[(1-cyclobutyl-1H-1,2,3-triazol-4-yl)methyl]-N-(4-fluorophenyl)prop-2-enamide], the “% of control remaining” value came to 106.198%.
With `CCCn1c(C)cc(C=C(C#N)C(=O)N2CCCCC2)c1C` [9-D11, 3-(2,5-dimethyl-1-propyl-1H-pyrrol-3-yl)-2-(piperidine-1-carbonyl)prop-2-enenitrile], the “% of control remaining” value is on record as 95.8801%.
On to `C=CC(=O)N1CC(c2cc(CO)on2)C1` [1-K20, 1-{3-[5-(hydroxymethyl)-1,2-oxazol-3-yl]azetidin-1-yl}prop-2-en-1-one], for which the “% of control remaining” value is 116.396%.
The same measure for `C=CC(=O)N1CCC(C(=O)N(C)C2CCCc3c2cnn3C)CC1` (stereo not drawn) [2-P12, N-methyl-N-(1-methyl-4,5,6,7-tetrahydro-1H-indazol-4-yl)-1-(prop-2-enoyl)piperidine-4-carboxamide]: 102.002%; for `CC(Cl)C(=O)NCc1cc2sccc2s1` (stereo not drawn) [6-B07, 2-chloro-N-({thieno[3,2-b]thiophen-2-yl}methyl)propanamide]: 80.2439%.
In the case of `CC(Cl)C(=O)c1ccc(NC(=O)C(C)(C)C)cc1` (stereo not drawn) [10-M06, N-[4-(2-chloropropanoyl)phenyl]-2,2-dimethylpropanamide], the “% of control remaining” value is given as 135.625%.
Regarding `N#CC(=Cc1cccc(F)c1)C(=O)Nc1ccc(SC(F)F)cc1` [9-N17, 2-cyano-N-{4-[(difluoromethyl)sulfanyl]phenyl}-3-(3-fluorophenyl)prop-2-enamide], the “% of control remaining” value is recorded as 97.9775%.
As to `C=CC(=O)N(C)CC(=O)Nc1ccc(C)c(S(=O)(=O)N(C)C)c1` [3-G04, N-({[3-(dimethylsulfamoyl)-4-methylphenyl]carbamoyl}methyl)-N-methylprop-2-enamide], the “% of control remaining” value is on record as 78.0148%.
The value for `COc1ccc(C2CCCN2C(=O)CCl)cc1OC` (stereo not drawn) [6-M03, 2-chloro-1-[2-(3,4-dimethoxyphenyl)pyrrolidin-1-yl]ethan-1-one] was 92.5366%.
`CC(Cl)C(=O)c1ccc(NS(C)(=O)=O)cc1` (stereo not drawn) [10-A08, N-[4-(2-chloropropanoyl)phenyl]methanesulfonamide]: the “% of control remaining” value was found to be 128.125%.
The value for `CCc1nocc1CN(C)C(=O)CCl` [5-B11, 2-chloro-N-[(3-ethyl-1,2-oxazol-4-yl)methyl]-N-methylacetamide] was 105.647%; that for `C=CC(=O)NCC1CSCCS1` (stereo not drawn) [1-K07, N-[(1,4-dithian-2-yl)methyl]prop-2-enamide] was 91.7802%.
The same measure for `C=CC(=O)N(C)Cc1cccc(Cl)c1` [2-G09, N-[(3-chlorophenyl)methyl]-N-methylprop-2-enamide]: 96.4317%; for `COc1cc(C=C(C#N)C(=O)NC(C)C)cc(OC)c1` [8-F15, 2-cyano-3-(3,5-dimethoxyphenyl)-N-(propan-2-yl)prop-2-enamide]: 134.108%.
The value for `N#CC(=Cc1ccccc1[N+](=O)[O-])C(=O)Nc1ccc2c(c1)OCCO2` [9-O20, 2-cyano-N-(2,3-dihydro-1,4-benzodioxin-6-yl)-3-(2-nitrophenyl)prop-2-enamide] was 108.764%; that for `O=C(CCl)NC1CCN(C(=O)COc2ccccc2)C1` (stereo not drawn) [7-L03, 2-chloro-N-[1-(2-phenoxyacetyl)pyrrolidin-3-yl]acetamide] was 105.495%; that for `CC(Cl)C(=O)NCC(c1ccccc1)c1nnc[nH]1` (stereo not drawn) [7-G15, 2-chloro-N-[2-phenyl-2-(4H-1,2,4-triazol-3-yl)ethyl]propanamide] was 97.0173%.
For the compound `Cc1ccc(C=C(C#N)C(=O)Nc2c(Cl)cccc2Cl)o1` [9-N21, 2-cyano-N-(2,6-dichlorophenyl)-3-(5-methylfuran-2-yl)prop-2-enamide], the “% of control remaining” value was 93.4831%.
The value for `O=C(CCl)c1cscn1` [10-L08, 2-chloro-1-(1,3-thiazol-4-yl)ethan-1-one] was 27.8125%; that for `C=CC(=O)Nc1ccc(C(=O)N2CCCC2C(=O)NC2CC2)cc1` (stereo not drawn) [2-I21, N-cyclopropyl-1-[4-(prop-2-enamido)benzoyl]pyrrolidine-2-carboxamide] was 114.883%.
The value for `C=CC(=O)N1CCC(C(=O)N2CCC(OC)(C(F)(F)F)CC2)CC1` [3-E08, 1-{4-[4-methoxy-4-(trifluoromethyl)piperidine-1-carbonyl]piperidin-1-yl}prop-2-en-1-one] was 101.001%.
The value for `CC(C)NC(=O)C(C#N)=Cc1cccc(F)c1F` [9-J20, 2-cyano-3-(2,3-difluorophenyl)-N-(propan-2-yl)prop-2-enamide] was 81.7978%.
As for `C=CC(=O)N(Cc1cn(CC)nc1C)C1CC1` [2-D13, N-cyclopropyl-N-[(1-ethyl-3-methyl-1H-pyrazol-4-yl)methyl]prop-2-enamide], the “% of control remaining” value was determined as 115.579%.
The value for `CC(C)NC(=O)C(C#N)=Cc1ccccc1OC(C)C` [9-C15, 2-cyano-N-(propan-2-yl)-3-[2-(propan-2-yloxy)phenyl]prop-2-enamide] was 115.356%; that for `CC1CN(CCCNC(=O)CCl)CC(C)O1.Cl` (stereo not drawn) [6-G11, 2-chloro-N-[3-(2,6-dimethylmorpholin-4-yl)propyl]acetamide hydrochloride] was 89.122%; that for `C=CC(=O)NCc1nncn1-c1ccccc1` [1-G07, N-[(4-phenyl-4H-1,2,4-triazol-3-yl)methyl]prop-2-enamide] was 116.747%.
With `C=CC(=O)Nc1ccc(C(=O)N2CCC[C@@H]2C(=O)OC)cc1` [2-E21, methyl (2R)-1-[4-(prop-2-enamido)benzoyl]pyrrolidine-2-carboxylate], the “% of control remaining” value was 89.4691%.
`O=C(CCl)N1N=C(c2cccc(F)c2)CC1c1cccs1` (stereo not drawn) [4-E22, 2-chloro-1-[3-(3-fluorophenyl)-5-(thiophen-2-yl)-4,5-dihydro-1H-pyrazol-1-yl]ethan-1-one]: the “% of control remaining” value was found to be 121.582%.
